No constants are given. Whether binding was seen depends on the method and setting. For part of these data: Binding seen in cells or lysates may run through a third protein. Some results given as binding are weak or reduced against the parent protein; the word gives no strength. For part of these data: Sequences can lack the tags named with a protein.

Amino acid sequences for entries named in this document (tags omitted).
UniProt Q8W4L3: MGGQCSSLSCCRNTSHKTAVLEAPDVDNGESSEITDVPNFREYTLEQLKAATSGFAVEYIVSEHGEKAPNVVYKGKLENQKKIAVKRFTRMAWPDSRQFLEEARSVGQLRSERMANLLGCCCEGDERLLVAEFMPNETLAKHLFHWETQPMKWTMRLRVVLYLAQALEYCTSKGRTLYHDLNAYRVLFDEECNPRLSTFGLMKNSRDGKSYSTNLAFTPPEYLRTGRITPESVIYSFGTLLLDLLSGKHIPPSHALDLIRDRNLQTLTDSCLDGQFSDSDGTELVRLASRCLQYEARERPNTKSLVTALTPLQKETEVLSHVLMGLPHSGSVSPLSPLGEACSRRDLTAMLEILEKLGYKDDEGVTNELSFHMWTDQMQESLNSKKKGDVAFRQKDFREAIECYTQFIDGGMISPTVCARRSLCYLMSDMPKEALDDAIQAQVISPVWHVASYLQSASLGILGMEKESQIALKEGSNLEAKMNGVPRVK
UniProt Q944A7: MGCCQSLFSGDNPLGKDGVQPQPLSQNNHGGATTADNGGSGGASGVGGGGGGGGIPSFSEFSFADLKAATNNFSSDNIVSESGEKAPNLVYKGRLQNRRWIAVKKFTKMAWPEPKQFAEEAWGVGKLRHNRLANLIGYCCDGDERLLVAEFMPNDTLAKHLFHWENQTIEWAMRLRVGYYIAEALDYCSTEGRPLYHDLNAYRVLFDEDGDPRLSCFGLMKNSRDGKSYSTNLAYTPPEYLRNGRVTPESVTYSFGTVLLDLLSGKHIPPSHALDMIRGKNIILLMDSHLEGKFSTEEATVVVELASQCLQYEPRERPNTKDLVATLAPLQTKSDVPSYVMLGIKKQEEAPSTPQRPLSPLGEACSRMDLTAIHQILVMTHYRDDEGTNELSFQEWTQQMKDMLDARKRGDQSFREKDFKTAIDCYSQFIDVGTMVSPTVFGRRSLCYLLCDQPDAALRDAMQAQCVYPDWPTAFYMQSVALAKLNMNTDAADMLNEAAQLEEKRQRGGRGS
UniProt O22476: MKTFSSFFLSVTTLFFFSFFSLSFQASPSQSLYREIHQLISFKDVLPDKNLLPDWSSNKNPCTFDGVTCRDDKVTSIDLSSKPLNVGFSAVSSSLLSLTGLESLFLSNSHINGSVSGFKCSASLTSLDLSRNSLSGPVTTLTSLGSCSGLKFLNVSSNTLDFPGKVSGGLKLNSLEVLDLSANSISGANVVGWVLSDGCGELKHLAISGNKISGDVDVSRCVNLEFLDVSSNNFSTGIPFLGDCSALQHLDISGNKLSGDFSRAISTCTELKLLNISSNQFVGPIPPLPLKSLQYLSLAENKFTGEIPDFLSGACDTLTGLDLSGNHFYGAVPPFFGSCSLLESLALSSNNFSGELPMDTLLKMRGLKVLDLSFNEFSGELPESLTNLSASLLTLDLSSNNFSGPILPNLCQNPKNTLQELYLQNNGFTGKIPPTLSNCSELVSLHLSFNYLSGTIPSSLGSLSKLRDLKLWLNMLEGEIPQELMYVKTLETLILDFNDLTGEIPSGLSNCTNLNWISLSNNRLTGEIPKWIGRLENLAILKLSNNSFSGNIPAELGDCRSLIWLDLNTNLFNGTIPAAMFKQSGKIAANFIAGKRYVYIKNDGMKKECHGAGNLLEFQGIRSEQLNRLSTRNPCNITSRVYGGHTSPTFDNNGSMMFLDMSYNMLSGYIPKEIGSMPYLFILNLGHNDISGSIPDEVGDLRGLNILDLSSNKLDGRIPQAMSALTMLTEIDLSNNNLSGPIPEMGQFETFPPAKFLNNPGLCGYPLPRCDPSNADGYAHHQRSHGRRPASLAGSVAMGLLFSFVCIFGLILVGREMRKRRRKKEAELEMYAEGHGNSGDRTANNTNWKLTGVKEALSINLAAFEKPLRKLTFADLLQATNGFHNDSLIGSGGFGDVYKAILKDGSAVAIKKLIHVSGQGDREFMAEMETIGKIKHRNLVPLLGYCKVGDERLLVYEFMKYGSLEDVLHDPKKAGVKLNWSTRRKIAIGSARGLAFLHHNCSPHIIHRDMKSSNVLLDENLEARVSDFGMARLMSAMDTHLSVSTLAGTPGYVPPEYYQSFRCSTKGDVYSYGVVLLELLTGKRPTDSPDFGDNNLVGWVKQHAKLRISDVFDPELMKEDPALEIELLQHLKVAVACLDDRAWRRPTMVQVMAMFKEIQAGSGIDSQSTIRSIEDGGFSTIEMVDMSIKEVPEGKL

First the molecules themselves.
T1: BON1-A (C-terminal A domain of BON1, from Val-319 to Pro-578), bait in pGBKT7 (Arabidopsis thaliana) (UniProt Q941L3)
T1 sequence: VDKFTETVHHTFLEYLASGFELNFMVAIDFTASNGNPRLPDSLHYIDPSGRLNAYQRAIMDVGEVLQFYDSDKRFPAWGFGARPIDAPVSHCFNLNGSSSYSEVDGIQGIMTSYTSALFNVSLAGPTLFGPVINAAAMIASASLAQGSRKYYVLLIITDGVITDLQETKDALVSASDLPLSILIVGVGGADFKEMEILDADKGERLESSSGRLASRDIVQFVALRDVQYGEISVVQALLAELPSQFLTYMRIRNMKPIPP

T2: BON1 in pCAMBIA1300-cLuc (Arabidopsis thaliana) (UniProt Q941L3)
T2 sequence: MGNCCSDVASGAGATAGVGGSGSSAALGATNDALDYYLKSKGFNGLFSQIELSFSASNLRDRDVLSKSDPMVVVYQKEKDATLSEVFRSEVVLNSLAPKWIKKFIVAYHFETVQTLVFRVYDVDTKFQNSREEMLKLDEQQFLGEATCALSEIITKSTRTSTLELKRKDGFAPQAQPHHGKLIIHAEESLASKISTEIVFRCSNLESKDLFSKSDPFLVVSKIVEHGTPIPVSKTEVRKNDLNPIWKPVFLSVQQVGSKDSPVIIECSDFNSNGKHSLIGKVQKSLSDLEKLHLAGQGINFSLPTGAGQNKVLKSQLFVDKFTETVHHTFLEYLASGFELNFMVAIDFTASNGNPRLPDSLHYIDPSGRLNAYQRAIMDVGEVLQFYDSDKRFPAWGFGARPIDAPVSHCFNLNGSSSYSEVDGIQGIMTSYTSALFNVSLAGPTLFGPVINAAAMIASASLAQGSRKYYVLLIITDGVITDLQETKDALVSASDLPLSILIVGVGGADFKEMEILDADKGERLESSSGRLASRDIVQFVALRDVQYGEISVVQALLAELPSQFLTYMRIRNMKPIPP

B1: SERK4-KD (kinase domain of SERK4) in pGADT7 (domain or fragment, UniProt Q9SKG5 294-591)
chain: FSNKNVLGRGGFGKVYKGRLADGNLVAVKRLKEERTKGGELQFQTEVEMISMAVHRNLLRLRGFCMTPTERLLVYPYMANGSVASCLRERPEGNPALDWPKRKHIALGSARGLAYLHDHCDQKIIHRDVKAANILLDEEFEAVVGDFGLAKLMNYNDSHVTTAVRGTIGHIAPEYLSTGKSSEKTDVFGYGVMLLELITGQKAFDLARLANDDDIMLLDWVKEVLKEKKLESLVDAELEGKYVETEVEQLIQMALLCTQSSAMERPKMSEVVRMLEGDGLAERWEEWQKEEMPIHDFN
B2: BKI1 in pGADT7 (protein, UniProt Q9FMZ0 1-337)
chain: METNLQQVKNSSQTFSEKQNPKQEASPSPISSTCSSPSHDFSFTISLQPLSSSSKHISPTLRSPSKTTSSYQQTDPFAVDLSPADEIFFHGHLLPLHLLSHLPVSPRTSTGSYNDGFTLPVKDILPDQPTNNNNNTENAITNISTEAKDDNTEDKAEGEIRVKTKPIKSFSLFGLSKWRKGFESNEREQEQQQQKIKKPMSLDLSHAVKKYIRMLFQKRGNGTQFWNRRQTSSYSFSSSLMGPNGNSKTMINGSYNKRDLIRGRRGELFSAPASMRTSPTNSGHLRVSTAGLSSSSGSTSSSSSDSTMEELQAAIQAAIAHCKNSSAVDRDDKVKDS
B3: TTL4 in pGADT7 (protein, UniProt Q84JR9 1-682)
chain: MSHYRRHSLEPSITSKFRDSLSFQRDDDVINKPDFRELDFGSPLRPRGSSSAAATPAASGSSSSSSGSASGKPAVTSQFARRSHSGELSGLSQTSPVKPGSVNRNLKPGHRRSASAGTPLIYSGLGFSPVNNNNNSSRGGGSGATSPNPGVLPTGNICPSGRILKTGMATRASVRPETLCTGTANYGHGNIIRTGGKVSHATKAAAEMSDSEEVKKAGNVMYRKGNYAEALALYDRAISLSPENPAYRSNRAAALAASGRLEEAVKECLEAVRCDPSYARAHQRLASLYLRLGEAENARRHLCVSGQCPDQADLQRLQTLEKHLRLCTEARKIGDWRTVISEIDAAIANGADSSPQLVACKAEAFLRLHQIKDSDLCISSIPRLDHHHTQPPEKLFGIVCDAYVLCVQAQVDMALGRFENAIVKVERAMTIDHSNSPEVVSVLNNVKNVAKARTRGNELFSSGRYSEASVAYGDGLKLDAFNSVLYCNRAACWFKLGMWEKSVDDCNQALRIQPSYTKALLRRAASYGKLGRWEDAVRDYEVLRKELPGDSEVAESLQRARNALSNKSEEPKYLGFNNEVEEVSTLDKFKTATSLPGISVFHFKSSSNRQSEAISPFVNTLCLRYPLVHFFKVDVEESLALAKAESIKKIPTFKIYKKGEKVKEMVCPSHQLLEDSVTHFLL
B4: SERK1-KD (kinase domain of SERK1) in pGADT7 (domain or fragment, UniProt Q94AG2 302-589)
chain: FSNKNILGRGGFGKVYKGRLADGTLVAVKRLKEERTPGGELQFQTEVEMISMAVHRNLLRLRGFCMTPTERLLVYPYMANGSVASCLRERPPSQPPLDWPTRKRIALGSARGLSYLHDHCDPKIIHRDVKAANILLDEEFEAVVGDFGLAKLMDYKDTHVTTAVRGTIGHIAPEYLSTGKSSEKTDVFGYGIMLLELITGQRAFDLARLANDDDVMLLDWVKGLLKEKKLEMLVDPDLQTNYEERELEQVIQVALLCTQGSPMERPKMSEVVRMLEGDGLAEKWDEWQ
B5: …OPEPTIDE-REPEAT THIOREDOXIN-LIKE1 (TTL1) in pGADT7 (protein, UniProt Q9MAH1 1-699)
chain: MPKSVKPISESDKLSDHLRDSSLTSEINKPDFRELDLGSPVSPLRSQPRGLTTTTTTTTTSSSSSSSSGSVTGRIKHAPVIGRSNSVRSQSNSSSGNNNLRPRSDSATTSSSSHSQPLLSSSSSSATSPAPTSPANVLPTGNICPSGKIQITGMTQSRSRSDVLGSGTGTYGHGSIMRGGGISPAKPTNTGGGSNSPVNVGSSSRSSSTVATGETPIWKKAILGSDSEEVKRVGNEMYRKGLFNEALKLYDRAIALSPTNAAYRSNRAAALIGLSRIGEAVKECEDAVRSDPNYGRAHHRLALLLIRLGQVNSARKHLCFLGRPSDPMELQKLEAVEKHLIKCVDARRVTDWKTVLIEADAAIVSGADFSPQLFMCKVEAFLKLHRLDDAQSKLLEVPKVEPFPVSCSQTRFSGMACEAYIYFVKAQIEMALGRFENAVMAAEKASQIDPRCNEVAMLHNTVTLVARARARGNDLYKSERYTEASSAYAEGLRLDPCNAILYCNRAACWFKLGMWERSIEDCNQALRYQPSYTKPLLRRAASNSKMERWGAAVSDYEALIRELPHDKEVAESLFHAQVALKKSRGEEVLNMEFGGEVEEIYSLEQFKSAMNLPGVSVIHFSTASDHQCKQISPFVDSLCTRYPSIHFLKVDIDKCPSIGNAENVRVVPTVKIYKNGSRVKEIVCPSKEVLEYSVRHYSG
B6: SERK2-KD (kinase domain of SERK2) in pGADT7 (domain or fragment, UniProt Q9XIC7 305-592)
chain: FSNKNILGRGGFGKVYKGRLADGTLVAVKRLKEERTPGGELQFQTEVEMISMAVHRNLLRLRGFCMTPTERLLVYPYMANGSVASCLRERPPSQLPLAWSIRQQIALGSARGLSYLHDHCDPKIIHRDVKAANILLDEEFEAVVGDFGLARLMDYKDTHVTTAVRGTIGHIAPEYLSTGKSSEKTDVFGYGIMLLELITGQRAFDLARLANDDDVMLLDWVKGLLKEKKLEMLVDPDLQSNYTEAEVEQLIQVALLCTQSSPMERPKMSEVVRMLEGDGLAEKWDEWQ
B7: SERK4 in pCAMBIA1300-nLuc (receptor, UniProt Q9SKG5 34-620)
chain: DALTQLKNSLSSGDPANNVLQSWDATLVTPCTWFHVTCNPENKVTRVDLGNAKLSGKLVPELGQLLNLQYLELYSNNITGEIPEELGDLVELVSLDLYANSISGPIPSSLGKLGKLRFLRLNNNSLSGEIPMTLTSVQLQVLDISNNRLSGDIPVNGSFSLFTPISFANNSLTDLPEPPPTSTSPTPPPPSGGQMTAAIAGGVAAGAALLFAVPAIAFAWWLRRKPQDHFFDVPAEEDPEVHLGQLKRFTLRELLVATDNFSNKNVLGRGGFGKVYKGRLADGNLVAVKRLKEERTKGGELQFQTEVEMISMAVHRNLLRLRGFCMTPTERLLVYPYMANGSVASCLRERPEGNPALDWPKRKHIALGSARGLAYLHDHCDQKIIHRDVKAANILLDEEFEAVVGDFGLAKLMNYNDSHVTTAVRGTIGHIAPEYLSTGKSSEKTDVFGYGVMLLELITGQKAFDLARLANDDDIMLLDWVKEVLKEKKLESLVDAELEGKYVETEVEQLIQMALLCTQSSAMERPKMSEVVRMLEGDGLAERWEEWQKEEMPIHDFNYQAYPHAGTDWLIPYSNSLIENDYPSGPR
B8: SERK2 in pCAMBIA1300-nLuc (receptor, UniProt Q9XIC7 30-628)
chain: NMEGDALHSLRANLVDPNNVLQSWDPTLVNPCTWFHVTCNNENSVIRVDLGNADLSGQLVPQLGQLKNLQYLELYSNNITGPVPSDLGNLTNLVSLDLYLNSFTGPIPDSLGKLFKLRFLRLNNNSLTGPIPMSLTNIMTLQVLDLSNNRLSGSVPDNGSFSLFTPISFANNLDLCGPVTSRPCPGSPPFSPPPPFIPPPIVPTPGGYSATGAIAGGVAAGAALLFAAPALAFAWWRRRKPQEFFFDVPAEEDPEVHLGQLKRFSLRELQVATDSFSNKNILGRGGFGKVYKGRLADGTLVAVKRLKEERTPGGELQFQTEVEMISMAVHRNLLRLRGFCMTPTERLLVYPYMANGSVASCLRERPPSQLPLAWSIRQQIALGSARGLSYLHDHCDPKIIHRDVKAANILLDEEFEAVVGDFGLARLMDYKDTHVTTAVRGTIGHIAPEYLSTGKSSEKTDVFGYGIMLLELITGQRAFDLARLANDDDVMLLDWVKGLLKEKKLEMLVDPDLQSNYTEAEVEQLIQVALLCTQSSPMERPKMSEVVRMLEGDGLAEKWDEWQKVEVLRQEVELSSHPTSDWILDSTDNLHAMELSGPR
B9: SERK1 in pCAMBIA1300-nLuc (receptor, UniProt Q94AG2 27-625)
chain: NLEGDALHTLRVTLVDPNNVLQSWDPTLVNPCTWFHVTCNNENSVIRVDLGNAELSGHLVPELGVLKNLQYLELYSNNITGPIPSNLGNLTNLVSLDLYLNSFSGPIPESLGKLSKLRFLRLNNNSLTGSIPMSLTNITTLQVLDLSNNRLSGSVPDNGSFSLFTPISFANNLDLCGPVTSHPCPGSPPFSPPPPFIQPPPVSTPSGYGITGAIAGGVAAGAALLFAAPAIAFAWWRRRKPLDIFFDVPAEEDPEVHLGQLKRFSLRELQVASDGFSNKNILGRGGFGKVYKGRLADGTLVAVKRLKEERTPGGELQFQTEVEMISMAVHRNLLRLRGFCMTPTERLLVYPYMANGSVASCLRERPPSQPPLDWPTRKRIALGSARGLSYLHDHCDPKIIHRDVKAANILLDEEFEAVVGDFGLAKLMDYKDTHVTTAVRGTIGHIAPEYLSTGKSSEKTDVFGYGIMLLELITGQRAFDLARLANDDDVMLLDWVKGLLKEKKLEMLVDPDLQTNYEERELEQVIQVALLCTQGSPMERPKMSEVVRMLEGDGLAEKWDEWQKVEILREEIDLSPNPNSDWILDSTYNLHAVELSGPR

The target of one experiment is T1, BON1-A (C-terminal A domain of BON1, from Val-319 to Pro-578), bait in pGBKT7 (Arabidopsis thaliana). Kind of experiment: two-hybrid; pairwise co-transformation of pGBKT7 and pGADT7 constructs into yeast strain Y2H Gold; growth on SC -Leu/-Trp and SC -Ade/-His/-Leu/-Trp with X-a-Gal.
In the case of “BSK3 in pGADT7 (from UniProt Q8W4L3 1-489)”, the binding entry was “no binding”.

Regarding “BSK1 in pGADT7 (from UniProt Q944A7 1-512)”, the binding entry is listed as “no binding”.

Regarding “BRI1 in pGADT7 (from UniProt O22476 1-1196) (receptor)”, the binding result is “no binding”.

B1: the binding result is given as “binds”.

As to B2, the binding result was “no binding”.

As for B3, the binding entry is “no binding”.

Consider B4, for which the binding entry is recorded as “binds”.

With B5, the binding entry is “no binding”.

With B6, the binding entry is listed as “binds”.

A further experiment deals with T2, BON1 in pCAMBIA1300-cLuc (Arabidopsis thaliana). Kind of experiment: split reporter; split luciferase complementation (SLC); cLuc and nLuc fusions co-expressed in N. benthamiana leaves by Agrobacterium, imaged 2 days post inoculation.
B7: the binding result is “binds”.

In the case of B8, the binding entry is reported as “binds”.

In the case of B9, the binding entry is recorded as “binds”.

Source of the values: PMC10923931.
